Assay results published in PMC4336329 (PLoS ONE, 2015).
About 2,200 (0.71%) of roughly 310,000 compounds showed an effect of 50% or more. Effects have a minus sign here. This is one part of the list.

target: human ether-à-go-go-related gene (hERG) potassium channel (human, UniProt Q12809); test: primary screen, population patch clamp on CHO cells stably expressing hERG
Sequence (Q12809 whole entry, looked up): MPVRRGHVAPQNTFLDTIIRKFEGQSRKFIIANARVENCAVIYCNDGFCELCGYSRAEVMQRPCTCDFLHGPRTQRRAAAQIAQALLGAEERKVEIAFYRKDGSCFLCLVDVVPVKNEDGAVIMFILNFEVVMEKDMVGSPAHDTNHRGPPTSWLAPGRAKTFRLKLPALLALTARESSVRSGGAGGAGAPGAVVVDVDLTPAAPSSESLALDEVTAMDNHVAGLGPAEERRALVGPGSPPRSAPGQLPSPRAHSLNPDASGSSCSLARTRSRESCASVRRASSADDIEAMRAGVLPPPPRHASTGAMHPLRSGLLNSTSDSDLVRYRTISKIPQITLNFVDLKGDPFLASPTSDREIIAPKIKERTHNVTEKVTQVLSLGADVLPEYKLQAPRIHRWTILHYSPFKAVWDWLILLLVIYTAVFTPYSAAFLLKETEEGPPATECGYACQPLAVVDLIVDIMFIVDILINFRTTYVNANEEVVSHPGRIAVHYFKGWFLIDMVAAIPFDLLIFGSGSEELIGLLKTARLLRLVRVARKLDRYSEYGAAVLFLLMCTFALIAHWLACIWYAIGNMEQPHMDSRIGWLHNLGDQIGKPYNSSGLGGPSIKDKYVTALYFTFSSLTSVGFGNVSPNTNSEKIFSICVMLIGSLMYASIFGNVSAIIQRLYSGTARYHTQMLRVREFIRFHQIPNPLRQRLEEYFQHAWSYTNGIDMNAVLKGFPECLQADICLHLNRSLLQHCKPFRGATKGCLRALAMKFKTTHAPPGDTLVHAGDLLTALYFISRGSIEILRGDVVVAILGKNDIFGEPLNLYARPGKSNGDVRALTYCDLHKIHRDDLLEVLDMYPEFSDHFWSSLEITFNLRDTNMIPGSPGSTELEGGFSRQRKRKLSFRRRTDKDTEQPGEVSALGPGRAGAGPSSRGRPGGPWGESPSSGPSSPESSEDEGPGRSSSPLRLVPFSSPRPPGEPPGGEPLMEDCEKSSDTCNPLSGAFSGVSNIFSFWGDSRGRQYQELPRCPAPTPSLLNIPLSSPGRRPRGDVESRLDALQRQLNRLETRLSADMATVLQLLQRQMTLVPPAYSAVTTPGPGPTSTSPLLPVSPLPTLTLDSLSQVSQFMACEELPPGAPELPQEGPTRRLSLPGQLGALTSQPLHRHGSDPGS

| SMILES | hERG current change (%, negative = inhibition) at 1uM |
| --- | --- |
| Cc1nonc1C1CCCN1C(=O)c1cc(COc2cccc(C(F)(F)F)c2)on1 (stereo not shown) | 8.26% |
| CCOC(=O)c1cc(-c2cc3ccccc3o2)nc2c1c(=O)[nH]c(=O)n2CCOC | 10% |
| CCN(CC)c1cc(C)c2cc(NC(=O)c3ccccc3F)ccc2n1 | 2.87% |
| CCn1cc(/C=C(\NC(=O)c2ccccc2)C(=O)NCCCN2CCOCC2)c2ccccc21 | 11.9% |
| O=C1c2ccccc2C(O)N1c1ccccc1 (stereo not shown) | 14.1% |
| CC(=O)Cn1c(CN2CCCCC2)nc2ccccc2c1=O | 8.45% |
| Cn1c(=O)c(-c2cc(=O)[nH][nH]2)c(O)c2ccccc21 | 6.26% |
| O=C(CCN1C(=O)c2ccncc2C1=O)Nc1cc(F)ccc1F | 8.86% |
| COc1ccc(N2CCN(CC(=O)Nc3cc(C)cc(C)c3)CC2)cc1 | 1.64% |
| Cc1nc(SCC(=O)NCc2ccco2)c2c(=O)n(C)c(=O)n(CC(C)C)c2n1 | 7.93% |
| Cn1nnnc1SCC(=O)Nc1ccc(Oc2ccccc2)cc1 | -26% |
| CCCCNC(=O)C(Cc1ccccc1)NS(=O)(=O)c1ccc2c(c1)c(=O)n(C)c(=O)n2C (stereo not shown) | 0.673% |
| O=C(O)CCCCCNC(=O)c1ccc(C(=O)NCCCCCC(=O)O)cc1 | 15% |
| Cc1ccc2nc(Cn3cc(C(F)(F)F)cc(Cl)c3=O)cc(=O)n2c1 | 5.76% |
| Clc1cccc(-c2nc(NCc3cccnc3)c3ccccc3n2)c1 | 2.19% |
| COC(=O)C1=C(C)N(CCCC(=O)O)C(=O)NC1c1ccc(-c2ccccc2)cc1 (stereo not shown) | 11.1% |
| CCC1=C/C(=C/c2sc3ccccc3[n+]2CC)CC(C)(C)C1.[I-] | 16.1% |
| O=C(O)[C@H](Cc1ccccc1)Nc1ccc([N+](=O)[O-])cn1 | 9.63% |
| O=C1/C(=C\c2c(NCCOCCO)nc3ccccn3c2=O)SC(=S)N1Cc1ccco1 | 7.5% |
| COC(=O)c1ccccc1NC(=O)CCNC(=O)Cn1cnc2ccccc2c1=O | 6.78% |
| O=C(/C=C/c1ccccc1)CC(O)(c1ccccc1)C(F)(F)F (stereo not shown) | 8.8% |
| C/C(Cl)=C\CNC(C)c1ccccc1.Cl (stereo not shown) | 1.56% |

| SMILES | hERG current change (%, negative = inhibition) at 1uM |
| --- | --- |
| CCCn1c(=O)c(C(=O)OCC)c(O)c2cc(Br)ccc21 | 16.7% |
| O=C(NC(=S)Nc1cc(C(F)(F)F)ccc1N1CCOCC1)c1ccco1 | 15.4% |
| COCCNC(=O)c1cc(-c2ccccc2)nn1CC1CC(c2cccc([N+](=O)[O-])c2)=NO1 (stereo not shown) | -9.78% |
| Cc1ccc(S(=O)(=O)N2CCCCC2)cc1C(=O)N1CCN(CCO)CC1 | 5.58% |
| Cc1cccc(OCC(=O)N(Cc2cccs2)C2CCS(=O)(=O)C2)c1C (stereo not shown) | 4.47% |
| COc1ccc(/C=C/C(=O)OCC(=O)NC2CCCC2)cc1 | 6.94% |
| CC(C)c1cc(NC(=O)CSc2nnc(-c3ccccc3F)n2C)on1 | 1.58% |
| COc1ccc(-n2nc(C(=O)NCC(=O)Nc3cc(OC)c(OC)c(OC)c3)c3ccccc3c2=O)cc1Cl | 13.7% |
| O=C(NC1=NCCS1)c1cccc(N2C(=O)c3ccccc3C2=O)c1 | 6.67% |
| Cc1cccn2cc(-c3ccc(S(=O)(=O)N4CCOCC4)cc3)nc12 | -10.1% |
| CN=C(Nc1ccc(C(=O)OC)s1)c1ccc(Cl)cc1 | 6.3% |
| CCCCNC(=O)c1ccc(N2CCOCC2)c(NS(=O)(=O)c2ccc(OC)cc2)c1 | -5.44% |
| COc1ccc(/C(C)=N/NC(=S)Nc2cc(C)ccc2C)cc1 | -3.64% |
| CCN(CCn1cccn1)C(=O)CC1C(=O)NCCN1Cc1cccc(OC)c1OC (stereo not shown) | 5.29% |
| CCc1nn(CC(=O)N(C)C2CCCCC2)c(=O)c2cc3cc(C)ccc3n12 | 7.98% |
| CCOC(=O)C(O)(CC(=O)Nc1cc(F)ccc1C)C(F)(F)F (stereo not shown) | 7.09% |
| O=[N+]([O-])c1ccc(S(=O)(=O)Nc2cccc(-c3ccc(N4CCOCC4)nn3)c2)cc1 | -1.44% |
| Cc1ccccc1-c1cc(C(=O)NCc2ccc3c(c2)OCO3)n(CC2CC(c3cccnc3)=NO2)n1 (stereo not shown) | -2.64% |
| COc1cc(N)c(C(=O)c2nccc3cc(OC)c(OC)cc23)cc1OC | 14.7% |
| COc1ccccc1/C=c1\sc2nc(-c3ccccc3OC)nn2c1=O | 11% |
| COc1ccc(Nc2nc(N3CCN(C)CC3)nc3ccccc23)c(OC)c1 | -76.6% |
